Laboratory results: PubChem BioAssay AID1347165 (National Center for Advancing Translational Sciences (NCATS), 2019)
Screen size: about 220,000 compounds; about 5,700 (2.6%) were called active. Inconclusive results, whose numbers are uncertain, are shown with a selection of clear calls. Calls follow the shape of the dose curve; as a rule, active = well fitted inhibition curve with a large enough effect; inconclusive = small, poorly fitted or top-dose-only effect; inactive = no such curve, though single readings can be large or run the other way. Potencies of inconclusive entries are doubtful fits and often do not repeat.

Each compound was assayed against Lysine-specific demethylase 5B (Homo sapiens) (UniProt Q9UGL1) (assay: Primary screen for KDM5B Histone Demethylases FDH-coupled qHTS). Settings: FDH-coupled NADH fluorescence (FDH is formaldehyde dehydrogenase); activity change, negative = inhibition: at 57.7 µM (top of the series) unless noted.
UniProt Q9UGL1, sequence (Q9UGL1 whole entry, looked up): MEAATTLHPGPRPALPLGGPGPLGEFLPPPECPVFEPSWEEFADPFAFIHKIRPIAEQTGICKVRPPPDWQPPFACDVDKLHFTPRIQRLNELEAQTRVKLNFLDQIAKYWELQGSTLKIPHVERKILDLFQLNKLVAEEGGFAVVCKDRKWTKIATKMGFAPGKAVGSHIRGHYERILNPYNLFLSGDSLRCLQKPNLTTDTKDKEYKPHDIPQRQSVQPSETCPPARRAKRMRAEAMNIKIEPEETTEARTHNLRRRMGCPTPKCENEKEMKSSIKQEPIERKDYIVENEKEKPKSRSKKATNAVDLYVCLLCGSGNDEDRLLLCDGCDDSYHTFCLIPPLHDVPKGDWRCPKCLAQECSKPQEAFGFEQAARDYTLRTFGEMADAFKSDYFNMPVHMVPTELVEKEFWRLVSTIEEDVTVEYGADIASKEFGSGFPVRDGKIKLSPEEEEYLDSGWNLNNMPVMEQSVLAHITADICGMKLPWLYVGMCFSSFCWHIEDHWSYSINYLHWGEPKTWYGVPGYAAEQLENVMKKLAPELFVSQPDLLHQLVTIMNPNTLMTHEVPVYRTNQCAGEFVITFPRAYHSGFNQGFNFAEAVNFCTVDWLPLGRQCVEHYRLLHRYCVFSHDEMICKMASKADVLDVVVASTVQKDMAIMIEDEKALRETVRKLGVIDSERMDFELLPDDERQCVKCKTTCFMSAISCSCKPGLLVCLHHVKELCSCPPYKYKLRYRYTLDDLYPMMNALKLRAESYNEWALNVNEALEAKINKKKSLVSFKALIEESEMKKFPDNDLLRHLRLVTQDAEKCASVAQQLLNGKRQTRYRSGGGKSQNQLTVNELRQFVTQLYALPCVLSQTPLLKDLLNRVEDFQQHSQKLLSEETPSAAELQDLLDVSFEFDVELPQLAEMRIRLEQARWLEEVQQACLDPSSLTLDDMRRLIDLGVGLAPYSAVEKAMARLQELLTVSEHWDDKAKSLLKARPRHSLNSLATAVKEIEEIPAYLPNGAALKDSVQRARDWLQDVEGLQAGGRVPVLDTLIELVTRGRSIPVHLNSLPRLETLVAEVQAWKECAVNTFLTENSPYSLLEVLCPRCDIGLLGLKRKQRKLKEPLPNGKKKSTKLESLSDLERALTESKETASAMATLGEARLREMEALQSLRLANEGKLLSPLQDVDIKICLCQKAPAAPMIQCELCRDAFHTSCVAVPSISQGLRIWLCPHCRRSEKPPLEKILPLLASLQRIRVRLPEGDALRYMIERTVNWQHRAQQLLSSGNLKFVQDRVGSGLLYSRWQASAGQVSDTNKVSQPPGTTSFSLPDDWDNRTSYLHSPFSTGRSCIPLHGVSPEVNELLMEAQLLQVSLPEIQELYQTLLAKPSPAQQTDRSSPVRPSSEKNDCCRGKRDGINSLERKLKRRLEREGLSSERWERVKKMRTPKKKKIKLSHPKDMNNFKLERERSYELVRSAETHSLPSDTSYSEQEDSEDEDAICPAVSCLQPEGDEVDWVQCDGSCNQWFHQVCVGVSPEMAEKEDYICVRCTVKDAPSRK
Summary of the method: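 KDM5BΔAP (200 nM final) in 50 mM HEPES pH 7.5, 0.01% Tween-20 was preincubated 10 min at RT with compound over a concentration range. Substrate mix (H3K4me3 12.5 µM, α-KG 25 µM, Fe²⁺, ascorbate, NAD⁺, FDH) was added, and NADH fluorescence change over 30 min gave dose-response curves.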
Also: nearly all actives have a fitted effect of over 70% in size.
For activity change, negative = inhibition in this document: 0% is about no effect.
Potency is read from the fitted curve at half-maximal effect; tags tell the direction and shape of the fitted curve.

SMILES | Potency | activity change, negative = inhibition
CN(C)c1ccc(CN2CCn3c(nn(-c4cccc(Cl)c4)c3=O)C2)cc1 | inconclusive: 56.2 µM [inhibitor, partial curve, poor fit] | 
Cc1ccc2[nH]c(C(=O)NCCc3ccccc3)cc2c1 | inconclusive: 39.8 µM [inhibitor, single point] | 
O=C1CC2(CCN(C(=O)c3ccc(C(F)(F)F)cc3)CC2)Oc2ccccc21 | inconclusive: 20 µM [inhibitor, partial curve, poor fit] | 
CC(C)OCCCNC(=O)c1cc(C2CC2)nc2onc(C3CCCN3)c12 (stereo not given) | inconclusive: 79.4 µM [inhibitor, single point] | 
Cc1ccc(CN(C(=O)COc2ccc([N+](=O)[O-])cc2)c2ccccn2)o1 | inconclusive: 2.82 µM [inhibitor, full curve, poor fit] | 
CCOC(=O)C1(Cc2ccccc2F)CCCNC1 (stereo not given) | inconclusive: 10 µM [inhibitor, partial curve] | 
Cc1ccc(Nc2ncc(C(=O)Nc3ccc(F)cc3F)c3ccccc23)cc1Cl | inconclusive: 28.2 µM [inhibitor, partial curve, poor fit] | 
CC(=O)c1ccc(NC(=O)CSc2ccc3nnc(CCNS(=O)(=O)c4ccc(C)cc4)n3n2)cc1 | inconclusive: 31.6 µM [inhibitor, single point] | 
O=C(CCc1nnc2ccc(NCc3ccccc3)nn12)N1CCN(c2ccccc2)CC1 |  | inactive: 3.94%
CNC(=O)CN(C)Cc1cc(Cl)ccc1OCC(O)CN1CCCCCC1 (stereo not given) | inconclusive: 14.1 µM [inhibitor, partial curve, poor fit] | 
O=c1[nH]c2ccc(NCc3ccc(-c4ccc(F)cc4)o3)cc2[nH]1 | inconclusive: 35.5 µM [inhibitor, single point] | 
C[C@@H](NC(=O)OC(C)(C)C)C(=O)NCC1CCC(C(=O)N[C@@H](Cc2ccccc2)C(=O)O)CC1 (stereo not given in full) | inconclusive: 25.1 µM [inhibitor, partial curve, poor fit] | 
c1ccc2c(c1)ncc1nncn12 |  | inconclusive: -45.5% [inhibitor]
Cc1ccc(OC(C)C(=O)NCCc2c[nH]c3ccccc23)cc1 (stereo not given) |  | inactive: -18.3%
COc1ccc(C2Nc3ccccc3C(=O)N2Cc2ccccc2)cc1CN1CCOCC1 (stereo not given) | inconclusive: 20 µM [inhibitor, partial curve, poor fit] | 
COC(=O)Cn1c(=O)c2c(n(Cc3ccccc3)c1=O)N/C(=C/c1ccc(Br)cc1)C2=O | inconclusive: 25.1 µM [inhibitor, single point] | 
O=C(c1cc2c(s1)-c1ccccc1OC2)N1CCN(c2ccc(F)cc2)CC1 | inconclusive: 35.5 µM [inhibitor, partial curve, poor fit] | 
CCOC(=O)c1ccc(Nc2nc3ccccc3nc2NS(=O)(=O)c2ccc(F)cc2)cc1 | inconclusive: 25.1 µM [inhibitor, partial curve, poor fit] | 
CN(Cc1cc2n(n1)CCNC2)Cc1nc2ccsc2c(=O)[nH]1 | inconclusive: 3.55 µM [inhibitor, partial curve, poor fit] | 
O=C(COC(=O)c1ccncc1)Nc1cc(S(=O)(=O)N2CCOCC2)ccc1Cl | inconclusive: 10 µM [inhibitor, partial curve, poor fit] | 
Cn1nc(-c2ccccc2F)c2cc(C(=O)NCc3cccc(Cl)c3)sc21 | inconclusive: 28.2 µM [inhibitor, partial curve, poor fit] | 
O=C1NCCCCCCN(C(=O)NC2CCCCC2)[C@H]2C[C@H](C(=O)N3CCc4ccccc4C3)C[C@@H]12 |  | inactive: -0.469%

SMILES | Potency | activity change, negative = inhibition
COc1ccc(-n2ncc(C(=O)NCCN3CCOCC3)c2C2CCN(C(=O)OC(C)(C)C)CC2)cc1 |  | inconclusive: -35% [inhibitor]
CC#CCn1cc2c3c(cccc31)[C@H](CC(C)C)N[C@H](C(=O)NCCNC(C)=O)C2 | active: 31.6 µM | 
Cc1nc(-c2cccc(S(=O)(=O)N3CCC(C(=O)NCc4ccccc4Cl)CC3)c2)no1 |  | inactive: -10.4%
COc1ccc(N2CCN(c3nc(C(=O)NCc4ccccc4C)cs3)CC2)cc1 |  | inactive: -15%
COC(=O)[C@@H]1Cc2c([nH]c3ccccc23)[C@H]2C[C@@H](NCCNC(C)=O)C[C@@H](c3ccccc3)N21 | active: 8.91 µM | 
Cc1nnc(N2CCC(C(=O)NC(C)C)CC2)c2nn(-c3ccccc3)c(C)c12 | inconclusive: 15.8 µM [inhibitor, partial curve, poor fit] | 
Clc1ccccc1CN1CCc2nc(N3CCN(c4ncccn4)CC3)ncc2C1 | inconclusive: 39.8 µM [inhibitor, partial curve, poor fit] | 
Cc1ccc(C(=O)NCCn2nc(-c3ccc(Cl)cc3)ccc2=O)cc1C |  | inactive: 3.78%
O=S(=O)(NCCc1cn2ccccc2n1)c1cc(Cl)ccc1Cl |  | inactive: 19.3%
COc1ccc(-c2cc(C(=O)N/N=C/c3cccnc3)c3ccccc3n2)cc1 | inconclusive: 28.2 µM [inhibitor, partial curve, poor fit] | 
O=C(CNc1cccc(S(=O)(=O)N2CCCCC2)c1)Nc1ccc(N2CCCC2)cc1 |  | inactive: -6.99%
CCCCn1c(N)c(N(CC)C(=O)Cn2c(CC)nc3ccccc32)c(=O)[nH]c1=O |  | inactive: -13%
CC(=O)Nc1ccc(C(=O)Nc2ccc3c(c2)N(C2CCCC2)C(=O)c2ccccc2S3)cc1 | inconclusive: 35.5 µM [inhibitor, partial curve, poor fit] | 
CCOCCCNC(=O)C1CCc2ncc(-c3ccsc3)n2C1 (stereo not given) |  | inactive: -14.5%
COc1cccc2cc(C(=O)Nc3ccccc3O)c(=O)oc12 |  | inactive: 5.5%
Cc1ccc(C(C)NC(=O)CCCc2nc(C(C)(C)C)no2)o1 (stereo not given) | inconclusive: 28.2 µM [inhibitor, partial curve, poor fit] | 
COc1ccc(NC(=O)Cn2c(=O)n(Cc3ccco3)c(=O)c3oc4ccccc4c32)cc1Cl | inconclusive: 31.6 µM [inhibitor, partial curve, poor fit] | 
Cc1ccccc1-c1onc(C)c1C(=O)NCCOC(C)C |  | inactive: -7.08%
CCN(CC)c1cc(CCC(=O)NCc2ccccc2OC)ccn1 | active: 25.1 µM | 
COc1ccc(NC(=O)N2c3ccc(OC)cc3C(C)=CC2(C)C)cc1 | inconclusive: 22.4 µM [inhibitor, partial curve, poor fit] | 
CSCC(=O)N1C[C@@H](NC(=O)NC2CCCCC2)C[C@H]1C(=O)N[C@H](Cc1c[nH]c2ccccc12)C(N)=O |  | inactive: -9.93%
COc1cc(/C=N\NC(=O)c2ccc(-c3ccccc3)cc2)cc(OC)c1OC(C)=O | inconclusive: 31.6 µM [inhibitor, single point] | 

SMILES | Potency | activity change, negative = inhibition
CN(Cc1ccco1)C(=O)c1ccc2ncsc2c1 |  | inactive: 4.62%
CCCn1c(=O)c2sc(N3CCC(C)CC3)nc2n(CC(=O)Nc2cc(Cl)ccc2C)c1=O | inconclusive: 39.8 µM [inhibitor, single point] | 
CCCn1c(=O)c2ccccc2n(CC(=O)N(C)c2ccccc2)c1=O | inconclusive: 39.8 µM [inhibitor, single point] | 
Cc1cc(C(=O)CSc2nnc(COc3ccccc3Cl)n2C)c(C)n1CC(F)(F)F |  | inactive: 18.3%
C=CCNC(=O)C(NC(=O)c1cccc(OC)c1)C1CCN(C(=O)c2ccccc2F)CC1 (stereo not given) | active: 31.6 µM | 
CCCOC(=O)Nc1ccccc1N=C1CCC/C1=C/c1ccccc1 | inconclusive: 22.4 µM [inhibitor, partial curve, poor fit] | 
O=C1CN(C(=O)c2cc3cc(Cl)ccc3[nH]2)CCN1 |  | inactive: 59.4%
Cc1ccc(CNC(=O)CSc2nc3ccsc3c(=O)n2CCC(C)C)cc1 |  | inactive: 6.81%
COCCn1c(C)c(C)c(S(=O)(=O)c2ccc(F)cc2)c1NC(=O)COC |  | inactive: -1.63%
CCc1noc(-c2cccn3c(CNC(=O)c4ccoc4)nnc23)n1 | active: 14.1 µM | 
CCC(=O)N1C(C(=O)NCC2CCCO2)COC12CCC(C)CC2 (stereo not given) | inconclusive: 7.08 µM [inhibitor, full curve, poor fit] | 
N=C1C(c2nc3ccccc3c(=O)[nH]2)=C(O)CN1c1ccc(Cl)c(Cl)c1 | inconclusive: 11.2 µM [inhibitor, partial curve, poor fit] | 
CC(C)Cc1noc(CSc2nc(-c3ccco3)nc3ccccc23)n1 | inconclusive: 39.8 µM [inhibitor, single point] | 
CC(=O)c1ccc(NC(=O)N[C@H]2CO[C@H]3[C@@H]2OC[C@@H]3n2nnnc2-c2ccc(N(C)C)cc2)cc1 | inconclusive: 22.4 µM [inhibitor, partial curve, poor fit] | 
Cc1cc(=O)oc2cc(OCCC(C)C)ccc12 | inconclusive: 28.2 µM [inhibitor, partial curve, poor fit] | 
CCCCN1CC(C(=O)Nc2ccc(C(=O)Nc3ccc(Br)cc3C)cc2)CC1=O (stereo not given) |  | inactive: 18.9%
COc1cc2c(c(OC)c1)C(c1ccc(Cl)cc1)C1=C(CCCC1=O)N2 (stereo not given) | inconclusive: 14.1 µM [inhibitor, partial curve, poor fit] | 
COc1ccccc1C(=O)NC1CCCc2c1[nH]c1ccccc21 (stereo not given) | inconclusive: 12.6 µM [inhibitor, partial curve, poor fit] | 
COc1ccc(-c2cc(=O)oc3c4c(ccc23)OCN(Cc2ccccc2)C4)cc1 | inconclusive: 22.4 µM [inhibitor, single point] | 
O=C(NC1CCOCC1)c1ccc2c(c1)C1(CCN(CC3CC3)C1)CN2Cc1ccccc1 (stereo not given) | active: 28.2 µM | 
Clc1ccc2oc([C@H]3CCN(Cc4ccccn4)C3)nc2c1 | inconclusive: 31.6 µM [inhibitor, single point] | 
